# The supplement of paper PMC4604168 (melanoma cell lines)
# The list shows a part of the results. Single values are uncertain, as repeats are few or missing.
# System: WM451Lu
# Experiment: cell count relative to DMSO control; melanoma cells; higher = more viable cells
# Conditions: library dose: low library concentration; 72 h
# 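Note: cell number obtained by counting DAPI-stained nuclei in high-throughput microscope images with image analysis software, screen run in 1,536-well plates.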
row,SMILES,cell count [%]
1,"CC[C@]1(O)C[C@H]2CN(CCc3c([nH]c4ccccc34)[C@@](C(=O)OC)(c3cc4c(cc3OC)N(C=O)[C@H]3[C@@](O)(C(=O)OC)[C@H](OC(C)=O)[C@]5(CC)C=CCN6CC[C@]43[C@@H]65)C2)C1 [vincristine] + CS(=O)(=O)c1ccc(C(=O)Nc2ccc(Cl)c(-c3ccccn3)c2)c(Cl)c1 [vismodegib] (first compound 0.0001 µM, partner dose 1 µM)",74.2
2,"CC[C@]1(O)C[C@H]2CN(CCc3c([nH]c4ccccc34)[C@@](C(=O)OC)(c3cc4c(cc3OC)N(C=O)[C@H]3[C@@](O)(C(=O)OC)[C@H](OC(C)=O)[C@]5(CC)C=CCN6CC[C@]43[C@@H]65)C2)C1 [vincristine] + CN(NC(=O)CC(=O)NN(C)C(=S)c1ccccc1)C(=S)c1ccccc1 [STA4783] (first compound 0.0001 µM, partner dose 0.006 µM)",49.9
3,"N#CC[C@H](C1CCCC1)n1cc(-c2ncnc3[nH]ccc23)cn1 [ruxolitinib] + O=C(CCCCCCC(=O)Nc1ccccc1)NO [vorinostat] (first compound 1 µM, partner dose 0.08 µM)",95.5
4,"CC[C@]1(O)C[C@H]2CN(CCc3c([nH]c4ccccc34)[C@@](C(=O)OC)(c3cc4c(cc3OC)N(C=O)[C@H]3[C@@](O)(C(=O)OC)[C@H](OC(C)=O)[C@]5(CC)C=CCN6CC[C@]43[C@@H]65)C2)C1 [vincristine] + Cc1cn(-c2cc(NC(=O)c3ccc(C)c(Nc4nccc(-c5cccnc5)n4)c3)cc(C(F)(F)F)c2)cn1 [nilotinib] (first compound 0.0001 µM, partner dose 0.2 µM)",44.2
5,"N#CC[C@H](C1CCCC1)n1cc(-c2ncnc3[nH]ccc23)cn1 [ruxolitinib] + COc1cc([C@@H]2c3cc4c(cc3[C@@H](O[C@@H]3O[C@@H]5CO[C@@H](C)O[C@H]5[C@H](O)[C@H]3O)[C@H]3COC(=O)[C@H]23)OCO4)cc(OC)c1O [etoposide] (first compound 1 µM, partner dose 0.02 µM)",101
6,"CC[C@]1(O)C[C@H]2CN(CCc3c([nH]c4ccccc34)[C@@](C(=O)OC)(c3cc4c(cc3OC)N(C=O)[C@H]3[C@@](O)(C(=O)OC)[C@H](OC(C)=O)[C@]5(CC)C=CCN6CC[C@]43[C@@H]65)C2)C1 [vincristine] + Cn1sc(=O)n(Cc2ccccc2)c1=O [TDZD-8] (first compound 0.0001 µM, partner dose 0.4 µM)",63.6
7,"N#CC[C@H](C1CCCC1)n1cc(-c2ncnc3[nH]ccc23)cn1 [ruxolitinib] + Oc1cc(-c2nc(-c3ccccc3)[nH]c2-c2ccncc2)ccc1Cl [L779450] (first compound 1 µM, partner dose 0.2 µM)",119
8,"CC[C@]1(O)C[C@H]2CN(CCc3c([nH]c4ccccc34)[C@@](C(=O)OC)(c3cc4c(cc3OC)N(C=O)[C@H]3[C@@](O)(C(=O)OC)[C@H](OC(C)=O)[C@]5(CC)C=CCN6CC[C@]43[C@@H]65)C2)C1 [vincristine] + C[C@@H](Oc1cc(-c2cnn(C3CCNCC3)c2)cnc1N)c1c(Cl)ccc(F)c1Cl [Crizotinib] (first compound 0.0001 µM, partner dose 0.2 µM)",88
9,"CC[C@]1(O)C[C@H]2CN(CCc3c([nH]c4ccccc34)[C@@](C(=O)OC)(c3cc4c(cc3OC)N(C=O)[C@H]3[C@@](O)(C(=O)OC)[C@H](OC(C)=O)[C@]5(CC)C=CCN6CC[C@]43[C@@H]65)C2)C1 [vincristine] + CCN(CC)CCNC(=O)c1c(C)[nH]c(/C=C2\C(=O)Nc3ccc(F)cc32)c1C [sunitinib] (first compound 0.0001 µM, partner dose 0.4 µM)",80.5
10,"Cc1cc(Nc2cc(N3CCN(C)CC3)nc(Sc3ccc(NC(=O)C4CC4)cc3)n2)n[nH]1 [Tozasertib] + C=CCn1c(=O)c2cnc(Nc3ccc(N4CCN(C)CC4)cc3)nc2n1-c1cccc(C(C)(C)O)n1 [MK1775] (first compound 0.006 µM, partner dose 0.02 µM)",111
11,"CC[C@]1(O)C[C@H]2CN(CCc3c([nH]c4ccccc34)[C@@](C(=O)OC)(c3cc4c(cc3OC)N(C=O)[C@H]3[C@@](O)(C(=O)OC)[C@H](OC(C)=O)[C@]5(CC)C=CCN6CC[C@]43[C@@H]65)C2)C1 [vincristine] + CCN(CC)CCCCNc1ncc2cc(-c3cc(OC)cc(OC)c3)c(NC(=O)NC(C)(C)C)nc2n1 [PD173074] (first compound 0.0001 µM, partner dose 0.1 µM)",69.5
